Experimental data reported in US20230287093A1.

Target: Fc receptors of THP-1 cells (primarily CD32 (FcγRII) and CD64 (FcγRI))
Assay: cell-based or functional assay
Set-up: unit not given beside the values

EC50 of cytokine induction in THP-1 cells, as a multiple of that of HuPT-113D IgG1 (II) (times higher than IgG1): < 30
B1: HuPT-113D IgG4 (II) (antibody)
heavy: QVQLVQSGAEVKKPGASVKVSCKASGYTFTSYWIHWVRQAPGQGLEWIGVIDPSDSYTRYNQKFKGRVTMTVDTSTSTAYMELRSLRSDDTAVYYCTTWEVDYWGQGTTVTVSSASTKGPSVFPLAPCSRSTSESTAALGCLVKDYFPEPVTVSWNSGALTSGVHTFPAVLQSSGLYSLSSVVTVPSSSLGTKTYTCNVDHKPSNTKVDKRV[… human IgG4 Fc with S228P (EU numbers) …]
light: DIVMTQSPLSLPVTPGEPASISCRSSQSLVHSDGNTYLHWYLQKPGQSPQLLIYKVSNRFSGVPDRFSGSGSGTDFTLKISRVEAEDVGVYYCSQSTHVPWTFGGGTKVEIKRTVAAPSVFIFPPSDEQLKSGTASVVCLLNNFYPREAKVQWKVDNALQSGNSQESVTEQDSKDSTYSLSSTLTLSKADYEKHKVYACEVTHQGLSSPVTKSFNRGEC
